Here are results for 1 molecule from publication PMC9477731 (Nature Immunology, 2022).

As a reminder, the Kd is the equilibrium constant for the complex coming apart. A high value points to a looser complex.

For test [1], the target named is T1, soluble monomeric CD86 (UniProt P42081 24-247).
T1 construct: soluble monomeric CD86 used as SPR analyte; Construct, tags and host are not described
T1 sequence (looked up): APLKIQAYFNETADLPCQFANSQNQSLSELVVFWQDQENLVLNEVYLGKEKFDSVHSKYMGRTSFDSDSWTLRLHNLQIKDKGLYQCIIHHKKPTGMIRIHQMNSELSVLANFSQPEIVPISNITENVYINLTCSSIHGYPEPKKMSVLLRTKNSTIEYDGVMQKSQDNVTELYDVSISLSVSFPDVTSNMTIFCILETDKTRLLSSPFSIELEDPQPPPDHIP
The test is described as follows: SPR; Biacore T200, Sensor Chip Protein A, CTLA-4–Arg70Gln-Fc immobilised (~2,500 RU), soluble monomeric ligand injected (CD80: eight twofold dilutions from 208.5 µM, 20 μl/min, 60 s); 10 mM Hepes, 150 mM NaCl, 0.05% sodium azide, pH 7.4, 25 °C; 1:1 binding model. The note with it: both partners purified. In general terms: In SPR one partner is held on a chip, and binding of the other changes the refractive index at the surface.

The target in test [2] is T2, soluble monomeric CD80 (UniProt P33681 35-242).
T2 construct: soluble monomeric CD80 used as SPR analyte; Construct, tags and host are not described; also called Soluble CD80
T2 sequence (looked up): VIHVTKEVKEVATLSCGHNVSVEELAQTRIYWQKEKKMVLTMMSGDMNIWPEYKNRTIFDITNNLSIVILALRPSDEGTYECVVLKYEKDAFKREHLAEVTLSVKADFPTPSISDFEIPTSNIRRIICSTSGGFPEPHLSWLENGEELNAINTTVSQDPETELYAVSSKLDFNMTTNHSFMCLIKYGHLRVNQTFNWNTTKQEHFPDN
The test is described as above. The settings on record: both partners purified.

B1: CTLA-4–Arg70Gln-Fc (Fc fusion)
chain: not shown
notes: soluble CTLA-4 with the patient mutation Arg70Gln; Held on a Protein A sensor chip by its Fc in SPR; detected with anti-Ig or anti-human-Fc on cells; also called Arg70Gln–Ig; R70Q-Ig
Regarding B1, the dissociation constant (Kd) in test [1] is about 20 µM; in test [2], about 5 µM.
